Measured values from PubChem BioAssay AID1345082 (National Center for Advancing Translational Sciences (NCATS), 2018).
Values joined by “and” are separate entries in the source; they are usually repeats but may differ in a detail not shown here. Identical values can stand only once. The whole screen tested about 94,000 compounds, of which about 4,000 (4.3%) were called active. The inconclusive results got no clear call from the source; some entries with a clear call stand among them for comparison. The call rests on the fitted dose curve; in most records, active means well fitted inhibition curve with a large enough effect; inconclusive means small, poorly fitted or top-dose-only effect; inactive means no such curve, though single readings can be large or run the other way. Potencies of inconclusive entries are doubtful fits and often do not repeat.

Experiment: Cytotoxic Profiling in NIH 3T3 Cell Line of Diverse Libraries Using Quantitative High-Throughput Screening; further: nearly all actives have a fitted effect of over 55% in size
Conditions: NIH 3T3 viability, CellTiter-Glo ATP luminescence, 48-72 h; series mostly up to 96.7 µM
Procedure, shortened: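 ATP-dependent luminescence (CellTiter-Glo) served as the viability signal for NIH 3T3 cells treated with compound for 48 or 72 hr at 37 °C.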
Potency means the concentration at half of the fitted maximal effect; tags describe the fitted curve by direction and shape.

**Q.** For `CCc1nnc(NC(=O)C2CC(=O)N(c3n[nH]c4cc(Br)ccc34)C2)s1` (configuration not stated), which Potency is on record?
**A.** Its Potency is inconclusive: 35.5 µM [inhibitor, single point].

**Q.** For `O=Cc1ccccc1-c1ccc(O)cc1`, which Potency is on record?
**A.** The Potency was active: 79.4 µM.

**Q.** With `O=C1COCC2(CN1Cc1ccccc1)CN(C(=O)c1cncc(F)c1)C2` as the molecule, how does the Potency read?
**A.** The Potency was “inactive”.

**Q.** Which Potency does the source give for `O=C(NCc1ccc(F)c(F)c1)c1ccc2nnc(C3CCCC3)n2c1` here?
**A.** The Potency was inconclusive: 35.5 µM [inhibitor, partial curve, poor fit].

**Q.** Which Potency does the source give for `Cc1nc(CN2Cc3nc(-c4cnn(Cc5ccccc5)c4)ccc3OCC2=O)cs1` here?
**A.** The Potency was “inactive”.

**Q.** For `Cc1cccc2c(C3CCN(C(=O)c4c(Cl)cc(Cl)cc4Cl)CC3)c[nH]c12`, which Potency is on record?
**A.** Its Potency is inconclusive: 11.2 µM [inhibitor, full curve, poor fit].

**Q.** With `CSc1ccc(CN2C(=O)C3(CCOCC3)CC2c2nnnn2C(C)(C)C)cc1` (configuration not stated) as the molecule, how does the Potency read?
**A.** The Potency was “inactive”.

**Q.** With `Cc1cccc(NC(=O)Cn2c(N(C)Cc3ccccc3)nc(C)cc2=O)c1` as the molecule, how does the Potency read?
**A.** Its Potency is inconclusive: 44.7 µM [inhibitor, partial curve, poor fit].

**Q.** With `CS(=O)(=O)N1CCC2(CC1)CC(CC(=O)N1CCN(c3ccccc3F)CC1)CCO2` (configuration not stated) as the molecule, how does the Potency read?
**A.** The Potency was inconclusive: 44.7 µM [inhibitor, partial curve, poor fit].

**Q.** Which Potency does the source give for `COc1cccc(CNC(=O)c2cc(-c3ccncc3)cn2C)c1` here?
**A.** Its Potency is inconclusive: 35.5 µM [inhibitor, partial curve, poor fit].

**Q.** Which Potency does the source give for `COc1ccc(NC(=O)NC[C@H]2Cn3cc(-c4ccc(C)cc4)nc3CO2)cc1` here?
**A.** Its Potency is inconclusive: 44.7 µM [inhibitor, full curve].

**Q.** For `COc1cccc([S+](=O)([O-])N2CCC3(C2)C(=NC2CCCCC2)NC(=O)N3c2cccnc2)c1` (configuration not stated), which Potency is on record?
**A.** Its Potency is inconclusive: 70.8 µM [inhibitor, single point].

**Q.** For `CCOc1cc(C(=O)NC2CCN(c3cc(-c4ccccc4)[nH]n3)CC2)cc(OCC)c1OCC`, which Potency is on record?
**A.** Its Potency is inconclusive: 35.5 µM [inhibitor, partial curve].

**Q.** With `COCCNC(=O)[C@@H]1C[C@@H](O)CN1C1CCN(C(=O)c2ccccc2F)CC1` as the molecule, how does the Potency read?
**A.** Its Potency is “inactive”.

**Q.** With `CC(C)(C)c1ccc(-c2cc(C[C@H]3CNCC[C@H]3CC(=O)N3CCN(c4ccccn4)CC3)no2)cc1` as the molecule, how does the Potency read?
**A.** The Potency was inconclusive: 22.4 µM [inhibitor, full curve, poor fit].

**Q.** Which Potency does the source give for `Cn1cccc1CN1CCC2(C1)C(=NC1CCCC1)NC(=O)N2c1cc(F)cc(F)c1` (configuration not stated) here?
**A.** The Potency was inconclusive: 35.5 µM [inhibitor, single point].

**Q.** With `CCc1noc(-c2ccn3c(CNC(=O)Cc4ccc(Cl)cc4)nnc3c2)n1` as the molecule, how does the Potency read?
**A.** The Potency was “inactive”.

**Q.** Which Potency does the source give for `COc1ccc(C(=O)N2CC[C@@H](CC(=O)O)[C@@H](CCN3CCCN(C(C)=O)CC3)C2)cc1` here?
**A.** The Potency was inconclusive: 89.1 µM [inhibitor, partial curve, poor fit].

**Q.** For `CCC(=O)N1CCc2c(C(=O)NCc3cc(OC)ccc3OC)cccc21`, which Potency is on record?
**A.** The Potency was “inactive”.

**Q.** For `COc1ccc(-c2nccn2C2CCC(N)CC2)c(Cl)c1OC` (configuration not stated), which Potency is on record?
**A.** The Potency was “inactive”.

**Q.** For `COc1cccc(-c2c(C(=O)Nc3ccc(C)cc3)nc3sccn23)c1`, which Potency is on record?
**A.** Its Potency is “inactive”.

**Q.** With `CN1CCC(Oc2ncccc2NC(=O)c2ccncc2)C1` (configuration not stated) as the molecule, how does the Potency read?
**A.** The Potency was “inactive”.

**Q.** For `COC(=O)N1CCC(C(=O)N2CCCC(c3nc4ncccc4[nH]3)C2)CC1` (configuration not stated), which Potency is on record?
**A.** The Potency was “inactive”.

**Q.** Which Potency does the source give for `COc1ccc(C(=O)NC2CCN(Cc3cccc(-c4cccs4)c3)CC2)cc1` here?
**A.** Its Potency is “inactive and inconclusive: 31.6 µM [inhibitor, full curve]”.

**Q.** With `COc1cccc(CN2CCn3c(nnc3[C@@H]3C[C@@H](O)CN3C)C2)c1OC` as the molecule, how does the Potency read?
**A.** Its Potency is “inactive”.

**Q.** For `COC(=O)NC1CCN(C(=O)c2ccc(-c3ncccc3C#N)cc2)CC1`, which Potency is on record?
**A.** The Potency was “inactive”.

**Q.** For `CN1[C@@H](CCC(=O)NCc2ccccc2)CNC(=O)[C@@H]2[C@H]1CCN2Cc1cccc(OC(F)(F)F)c1`, which Potency is on record?
**A.** Its Potency is inconclusive: 39.8 µM [inhibitor, partial curve, poor fit].

**Q.** Which Potency does the source give for `COc1ccc2c(c1)OC[C@@H]1CN(CCC#N)C(=O)CCN(C(=O)c3ccc(F)cc3)[C@H]21` here?
**A.** Its Potency is inconclusive: 79.4 µM [inhibitor, partial curve, poor fit].

**Q.** Which Potency does the source give for `COc1ccc(NC(=O)c2ccc3c(c2)C2(CCCN(C)C2)CN3C)cc1` (configuration not stated) here?
**A.** Its Potency is inconclusive: 63.1 µM [inhibitor, partial curve, poor fit].

**Q.** For `O=C(NCCC1CCN(C(=O)Nc2ccc(F)cc2)CC1)c1cc(F)ccc1F`, which Potency is on record?
**A.** The Potency was “inactive”.

**Q.** With `CCOC(=O)C1CCCN(C(=O)c2nc3sccn3c2-c2cccc(OC)c2)C1` (configuration not stated) as the molecule, how does the Potency read?
**A.** Its Potency is “inactive”.

**Q.** For `Clc1cc(NCC2CC2)n2nccc2n1`, which Potency is on record?
**A.** Its Potency is inconclusive: 112 µM [inhibitor, partial curve, poor fit].

**Q.** Which Potency does the source give for `CC1CCN(CC2CCCCCN2C(=O)NCc2ccc(F)cc2)CC1` (configuration not stated) here?
**A.** Its Potency is “inactive”.

**Q.** For `c1ccc(CN2Cc3[nH]cnc3C[C@H]2c2nc(-c3ccccn3)no2)cc1`, which Potency is on record?
**A.** The Potency was “inactive”.

**Q.** With `CN(Cc1ccc(F)cc1)c1ccc2ncc(Nc3cccc(O)c3)n2n1` as the molecule, how does the Potency read?
**A.** The Potency was inconclusive: 25.1 µM [inhibitor, full curve].

**Q.** With `CCCCc1ccc(-n2cc(CN3CCN(C(C)=O)CC(O)C3)cn2)cc1` (configuration not stated) as the molecule, how does the Potency read?
**A.** Its Potency is inconclusive: 50.1 µM [inhibitor, partial curve, poor fit].

**Q.** With `Cc1nn(-c2ccccc2)c2c1C(C)N(C1CCCN(C(=O)c3ccc(Cl)nc3)C1)C2=O` (configuration not stated) as the molecule, how does the Potency read?
**A.** Its Potency is inconclusive: 44.7 µM [inhibitor, partial curve, poor fit].

**Q.** With `COCCNC(=O)C1CCN(c2nccc(Nc3ccccc3Cl)n2)CC1` as the molecule, how does the Potency read?
**A.** The Potency was inconclusive: 44.7 µM [inhibitor, partial curve, poor fit].

**Q.** Which Potency does the source give for `CC(C)N1CC[C@@H]2[C@H]1C(=O)NC[C@H](CCC(=O)NCc1ccc(F)cc1)N2C` here?
**A.** Its Potency is “inactive”.

**Q.** With `Cc1nc2c(c(-c3ccc(O)cc3)n1)CN(C(=O)C(C)(C)C)CCC2` as the molecule, how does the Potency read?
**A.** The Potency was inconclusive: 89.1 µM [inhibitor, partial curve].

**Q.** For `O=C(c1ccc(F)cc1)N1CCC(Cc2nc(-c3ccc(F)cc3)no2)CC1`, which Potency is on record?
**A.** The Potency was inconclusive: 25.1 µM [inhibitor, partial curve, poor fit].

**Q.** Which Potency does the source give for `C[C@]1(CO)[C@H]2Cc3sc(NC(=O)c4ccc(F)cc4)nc3[C@@H](CC(=O)N3CCOCC3)[C@]2(C)CC[C@H]1O` here?
**A.** The Potency was “inactive”.
